The values that follow come from the supplement of paper PMC4604168 (melanoma cell lines).

The other results are listed elsewhere or left out. Single values are uncertain, as repeats are few or missing.
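Note: cell number obtained by counting DAPI-stained nuclei in high-throughput microscope images with image analysis software, screen run in 1,536-well plates.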

The test relates to LOXIMVI. Kind of test: cell count relative to DMSO control; melanoma cells; higher = more viable cells. To be noted: library dose: low library concentration; 72 h.
`N#CC[C@H](C1CCCC1)n1cc(-c2ncnc3[nH]ccc23)cn1` [ruxolitinib] + CCc1ccc(CCOc2ccc(CC3SC(=O)NC3=O)cc2)nc1 [pioglitazone] (first compound 1 µM, partner dose 2 µM): the cell count was 76.7%.

As for `N#CC[C@H](C1CCCC1)n1cc(-c2ncnc3[nH]ccc23)cn1` [ruxolitinib] + Cn1cc(/C=C2\C(=O)Nc3cccnc32)c2ccccc21 [GW441756] (first compound 1 µM, partner dose 0.4 µM), the cell count worked out at 113%.

As for `CC[C@]1(O)C[C@H]2CN(CCc3c([nH]c4ccccc34)[C@@](C(=O)OC)(c3cc4c(cc3OC)N(C=O)[C@H]3[C@@](O)(C(=O)OC)[C@H](OC(C)=O)[C@]5(CC)C=CCN6CC[C@]43[C@@H]65)C2)C1` [vincristine] + COc1cc2c(Oc3ccc4[nH]c(C)cc4c3F)ncnc2cc1OCCCN1CCCC1 [cediranib] (first compound 0.0001 µM, partner dose 0.4 µM), the cell count is 77.6%.

`Cc1cc(Nc2cc(N3CCN(C)CC3)nc(Sc3ccc(NC(=O)C4CC4)cc3)n2)n[nH]1` [Tozasertib] + CC1(C)NC(=O)N(c2ccc([N+](=O)[O-])c(C(F)(F)F)c2)C1=O [nilutamide] (first compound 0.006 µM, partner dose 1 µM) yielded a cell count of 90.4%.

In turn, `N#CC[C@H](C1CCCC1)n1cc(-c2ncnc3[nH]ccc23)cn1` [ruxolitinib] + COc1ccc(COc2ccc(Cc3cnc(N)nc3N)cc2OC)cc1 [GW2580] (first compound 1 µM, partner dose 1 µM) registered a cell count of 86.1%.

`N#CC[C@H](C1CCCC1)n1cc(-c2ncnc3[nH]ccc23)cn1` [ruxolitinib] + OCCn1cc(-c2cnc3nnn(Cc4ccc5ncccc5c4)c3n2)cn1 [PF04217903] (first compound 1 µM, partner dose 1 µM) gave a cell count of 139%.

Turning to `N#CC[C@H](C1CCCC1)n1cc(-c2ncnc3[nH]ccc23)cn1` [ruxolitinib] + O=C(O)c1ccc(-c2c[nH]c3ncc(-c4ccccc4)cc23)cc1C1CCCC1 [GSK650394] (first compound 1 µM, partner dose 0.16 µM), the cell count came out at 134%.

`N#CC[C@H](C1CCCC1)n1cc(-c2ncnc3[nH]ccc23)cn1` [ruxolitinib] + N#Cc1c(O)c2c(-c3ccc(-c4ccccc4O)cc3)csc2[nH]c1=O [A769662] (first compound 1 µM, partner dose 2 µM) showed a cell count of 121%.

Turning to `N#CC[C@H](C1CCCC1)n1cc(-c2ncnc3[nH]ccc23)cn1` [ruxolitinib] + CN(C)S(=O)(=O)c1ccc2c(c1)/C(=C/c1cc3c([nH]1)CCCC3)C(=O)N2 [SU6656] (first compound 1 µM, partner dose 0.4 µM), the cell count was 125%.

In turn, `Cc1cc(Nc2cc(N3CCN(C)CC3)nc(Sc3ccc(NC(=O)C4CC4)cc3)n2)n[nH]1` [Tozasertib] + Cc1cc(N2CCOCC2)cc2[nH]c(-c3c(NC[C@@H](O)c4cccc(Cl)c4)cc[nH]c3=O)nc12 [BMS536924] (first compound 0.006 µM, partner dose 0.2 µM) gave a cell count of 85.6%.

For `Cc1cc(Nc2cc(N3CCN(C)CC3)nc(Sc3ccc(NC(=O)C4CC4)cc3)n2)n[nH]1` [Tozasertib] + COc1ccc2c(c1)CCC1C2CCC2(C)C(NCCCCCCN3C(=O)C=CC3=O)CCC12 [U73122] (first compound 0.006 µM, partner dose 0.4 µM), the cell count came to 113%.

`CC[C@]1(O)C[C@H]2CN(CCc3c([nH]c4ccccc34)[C@@](C(=O)OC)(c3cc4c(cc3OC)N(C=O)[C@H]3[C@@](O)(C(=O)OC)[C@H](OC(C)=O)[C@]5(CC)C=CCN6CC[C@]43[C@@H]65)C2)C1` [vincristine] + O=C1NC(=O)/C(=C/c2ccc(-c3ccc(F)cc3O)o2)S1 [AS252424] (first compound 0.0001 µM, partner dose 1 µM) came in with a cell count of 94.8%.

As for `Cc1cc(Nc2cc(N3CCN(C)CC3)nc(Sc3ccc(NC(=O)C4CC4)cc3)n2)n[nH]1` [Tozasertib] + O=C(Nc1ccccc1)c1cc([N+](=O)[O-])ccc1Cl [GW9662] (first compound 0.006 µM, partner dose 2 µM), the cell count turned out to be 109%.

`N#CC[C@H](C1CCCC1)n1cc(-c2ncnc3[nH]ccc23)cn1` [ruxolitinib] + C=CCn1c(=O)c2cnc(Nc3ccc(N4CCN(C)CC4)cc3)nc2n1-c1cccc(C(C)(C)O)n1 [MK1775] (first compound 1 µM, partner dose 0.02 µM): the cell count turned out to be 121%.
